The other results are listed elsewhere or left out. Sequences were assembled here from the parent chain. Inactive controls read about 0.05.
B1: TEV protease; numbered along this chain (parent)
chain: MGESLFKGPRDYNPISSSICHLTNESDGHTTSLYGIGFGPFIITNKHLFRRNNGTLVVQSLHGVFKVKDTTTLQQHLVDGRDMIIIRMPKDFPPFPQKLKFREPQREERICLVTTNFQTKSMSSMVSDTSCTFPSGDGIFWKHWIQTKDGQCGSPLVSTRDGFIVGIHSASNFTNTNNYFTSVPKNFMELLTNQEAQQWVSGWRLNADSVLWGGHKVFMVKPEEPFQPVKEATQL

Variants of: B1
Assay: raw area under fraction-flipped curve 0-4 h after induction (AUC4h, not background-subtracted), DNA-recorder readout of cleavage of the substrate (dimensionless); higher = more cleavage of the substrate by the protease variant
Settings: temperature: 34 °C; time window: 0-4 h after rhamnose induction
Description: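 In vivo DNA recorder in E. coli TOP10(DE3) ΔrhaA at 34 °C. Each TEVp single-site mutant (parent TEVp 0) is paired with a single-site variant of the 7-mer TEVs (canonical ENLYFQ|S). The substrate sits between flexible linkers in a Bxb1-sfGFP-TEVs-SsrA fusion, so cleavage stabilises Bxb1 and speeds flipping of a recombination array, read by NGS. The value is the raw area under the fraction-flipped curve over 0-4 h after rhamnose induction (AUC4h), with ≥20 reads per time point. It is not background-subtracted; inactive controls average about 0.047.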
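Note: Bxb1 expression induced with 0.2% (w/v) L-rhamnose at OD600 near 0.5, cultures sampled hourly, flipped fraction per protease–substrate barcode pair counted by paired-end Illumina sequencing.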

| Variant | area with substrate ENAYFQS | area with substrate ENCYFQS | area with substrate ENDYFQS | area with substrate ENEYFQS | area with substrate ENGYFQS | area with substrate ENHYFQS | area with substrate ENNYFQS | area with substrate ENPYFQS | area with substrate ENQYFQS | area with substrate ENRYFQS | area with substrate ENSYFQS | area with substrate ENTYFQS | area with substrate ENVYFQS | area with substrate ENWYFQS | area with substrate ENYYFQS | area with substrate ENFYFQS | area with substrate ENKYFQS | area with substrate ENIYFQS | area with substrate ENMYFQS |
| --- | --- | --- | --- | --- | --- | --- | --- | --- | --- | --- | --- | --- | --- | --- | --- | --- | --- | --- | --- |
| MGESLFKGPRDYNPISSSICHLTNESDGHTTSLYGIGFGPFIITNKHLFRRNNGTLVVQSLHGVFKVKDTTTLQQHLVDGRDMIIIRMPKDFPPFPQKLKFREPQREERICLVTTNFQTKSMSSMVSDTSCTFPFGDGIFWKHWIQTKDGQCGSPLVSTRDGFIVGIHSASNFTNTNNYFTSVPKNFMELLTNQEAQQWVSGWRLNADSVLWGGHKVFMVKPEEPFQPVKEATQL [S135F] | 0.0684 | 0.0647 | 0.0627 | 0.0615 | 0.0696 | 0.0597 | 0.0653 | 0.0569 | 0.0691 | 0.0585 | 0.0796 | 0.073 | 0.0644 | 0.056 | 0.061 |  |  |  |  |
| MGESLFKGPRDYNPISSSICHLTNESDGHTTSLYGIGFGPFIITNKHLFRRNNGTLVVQSLHGVFKVKDTTTLQQHLVDGRDMIIIRMPKDFPPFPQKLKFREPQREERICLVTTNFQTKSMSSMVSDTSCTFPNGDGIFWKHWIQTKDGQCGSPLVSTRDGFIVGIHSASNFTNTNNYFTSVPKNFMELLTNQEAQQWVSGWRLNADSVLWGGHKVFMVKPEEPFQPVKEATQL [S135N] | 0.064 |  | 0.0675 | 0.0582 | 0.0637 | 0.0593 | 0.0566 | 0.0556 | 0.0435 | 0.0568 | 0.0769 | 0.0588 | 0.0673 | 0.0615 | 0.0605 | 0.0618 | 0.0616 |  |  |
| MGESLFKGPRDYNPISSSICHLTNESDGHTTSLYGIGFGPFIITNKHLFRRNNGTLVVQSLHGVFKVKDTTTLQQHLVDGRDMIIIRMPKDFPPFPQKLKFREPQREERICLVTTNFQTKSMSSMVSDTSCTFPKGDGIFWKHWIQTKDGQCGSPLVSTRDGFIVGIHSASNFTNTNNYFTSVPKNFMELLTNQEAQQWVSGWRLNADSVLWGGHKVFMVKPEEPFQPVKEATQL [S135K] | 0.0618 | 0.0556 | 0.0626 | 0.0673 |  | 0.05 | 0.074 |  | 0.0662 | 0.0483 | 0.0064 | 0.0615 | 0.0512 | 0.0769 | 0.0549 | 0.06 |  | 0.0632 |  |
| MGESLFKGPRDYNPISSSICHLTNESDGHTTSLYGIGFGPFIITNKHLFRRNNGTLVVQSLHGVFKVKDTTTLQQHLVDGRDMIIIRMPKDFPPFPQKLKFREPQREERICLVTTNFQTKSMSSMVSDTSCTMPSGDGIFWKHWIQTKDGQCGSPLVSTRDGFIVGIHSASNFTNTNNYFTSVPKNFMELLTNQEAQQWVSGWRLNADSVLWGGHKVFMVKPEEPFQPVKEATQL [F133M] | 0.0622 | 0.0717 |  | 0.0658 | 0.0751 | 0.0706 |  | 0.0565 | 0.0667 | 0.059 | 0.0564 |  | 0.0837 |  |  |  |  | 0.107 | 0.0752 |
| MGESLFKGPRDYNPISSSICHLTNESDGHTTSLYGIGFGPFIITNKHLFRRNNGTLVVQSLHGVFKVKDTTTLQQHLVDGRDMIIIRMPKDFPPFPQKLKFREPQREERICLVTTNFQTKSMSSMVSDTSCTLPSGDGIFWKHWIQTKDGQCGSPLVSTRDGFIVGIHSASNFTNTNNYFTSVPKNFMELLTNQEAQQWVSGWRLNADSVLWGGHKVFMVKPEEPFQPVKEATQL [F133L] | 0.0739 |  |  | 0.0564 | 0.0516 | 0.0454 | 0.0654 |  | 0.0487 |  | 0.0798 | 0.0592 | 0.0825 |  | 0.0481 |  | 0.0495 | 0.085 |  |
| MGESLFKGPRDYNPISSSICHLTNESDGHTTSLYGIGFGPFIITNKHLFRRNNGTLVVQSLHGVFKVKDTTTLQQHLVDGRDMIIIRMPKDFPPFPQKLKFREPQREERICLVTTNFQTKSMSSMVSDTSCTPPSGDGIFWKHWIQTKDGQCGSPLVSTRDGFIVGIHSASNFTNTNNYFTSVPKNFMELLTNQEAQQWVSGWRLNADSVLWGGHKVFMVKPEEPFQPVKEATQL [F133P] | 0.0628 | 0.0619 | 0.0543 | 0.06 | 0.0453 |  | 0.059 | 0.0501 | 0.019 | 0.0346 | 0.0533 |  | 0.0551 |  | 0.052 | 0.0642 | 0.0481 | 0.0745 |  |
| MGESLFKGPRDYNPISSSICHLTNESDGHTTSLYGIGFGPFIITNKHLFRRNNGTLVVQSLHGVFKVKDTTTLQQHLVDGRDMIIIRMPKDFPPFPQKLKFREPQREERICLVTTNFQTKSMSSMVSDTSCTFPSGDGIFWKGWIQTKDGQCGSPLVSTRDGFIVGIHSASNFTNTNNYFTSVPKNFMELLTNQEAQQWVSGWRLNADSVLWGGHKVFMVKPEEPFQPVKEATQL [H143G] | 0.0472 | 0.0594 | 0.051 | 0.0449 | 0.0504 | 0.0506 | 0.0489 | 0.0382 |  | 0.0651 | 0.0522 | 0.0534 | 0.0533 | 0.0409 |  | 0.0567 |  |  | 0.0663 |
| MGESLFKGPRDYNPISSSICHLTNESDGHTTSLYGIGFGPFIITNKHLFRRNNGTLVVQSLHGVFKVKDTTTLQQHLVDGRDMIIIRMPKDFPPFPQKLKFREPQREERICLVTTNFQTKSMSSMVSDTSCEFPSGDGIFWKHWIQTKDGQCGSPLVSTRDGFIVGIHSASNFTNTNNYFTSVPKNFMELLTNQEAQQWVSGWRLNADSVLWGGHKVFMVKPEEPFQPVKEATQL [T132E] | 0.0618 | 0.052 | 0.056 |  | 0.055 | 0.0545 | 0.008 |  | 0.0887 | 0.0394 | 0.0528 | 0.0637 | 0.0603 | 0.0126 | 0.0561 | 0.0527 |  |  |  |
| MGESLFKGPRDYNPISSSICHLTNESDGHTTSLYGIGFGPFIITNKHLFRRNNGTLVVQSLHGVFKVKDTTTLQQHLVDGRDMIIIRMPKDFPPFPQKLKFREPQREERICLVTTNFQTKSMSSMVSDTSCTFPSGDGIFWKHWVQTKDGQCGSPLVSTRDGFIVGIHSASNFTNTNNYFTSVPKNFMELLTNQEAQQWVSGWRLNADSVLWGGHKVFMVKPEEPFQPVKEATQL [I145V] | 0.0785 |  | 0.0391 |  | 0.0695 |  | 0.0594 |  |  |  | 0.0819 |  | 0.0752 |  |  |  | 0.0498 |  |  |
